Data as given in PubChem BioAssay AID1345083 (National Center for Advancing Translational Sciences (NCATS), 2018).
The whole screen tested about 94,000 compounds, of which about 6,200 (6.6%) were called active. This list was built around the results that the source calls inconclusive (neither active nor inactive); the mix of calls is not that of the screen. Calls follow the shape of the dose curve; as a rule, active = well fitted inhibition curve with a large enough effect; inconclusive = small, poorly fitted or top-dose-only effect; inactive = flat fitted curve, though single readings scatter. Potencies beside an inconclusive call are fits to weak or partial responses and may not hold up.

assay: Cytotoxic Profiling in HEK 293 Cell Line of Diverse Libraries Using Quantitative High-Throughput Screening; conditions: HEK 293 viability, ATP luminescence (CellTiter-Glo), 48-72 h; activity change, negative = cytotoxicity: at 115 µM (top of the series) unless noted; series mostly up to 115 µM; also: nearly all actives have a fitted effect of over 60% in size
Outline: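 250 HEK 293 cells/well; compound by pintool; incubated 48 or 72 hr at 37 degree Celsius; CellTiter-Glo added, 10 min RT, luminescence imaged.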
% is scaled to controls: 0 for no effect and ±100 for the full control effect; potency is read from the fitted curve at half-maximal effect; tags tell the direction and shape of the fitted curve.

| SMILES | Potency | activity change, negative = cytotoxicity | outcome |
| --- | --- | --- | --- |
| NC(=O)COc1cccc(CN2CCN(c3ccc(F)cc3F)CC2)c1 | inconclusive: 44.7 µM [inhibitor, partial curve, poor fit] | – | – |
| COc1cccc(-c2cc(C(=O)N3CCCCC3)c3cnn(C)c3n2)c1 | – | inactive: -10.7% | – |
| COc1ncccc1-c1nccc2c(=O)cc(N(C)C3CCOCC3)oc12 | – | inactive: -18% [at 172 µM] | – |
| COc1cccc(-c2ccc(S(=O)(=O)N3CCSCC3)cc2)n1 | active: 44.7 µM | – | – |
| O=C(Cc1c[nH]c2ccccc12)N1CCCN(c2cc(-c3ccc(Br)cc3)[nH]n2)CC1 | inconclusive: 39.8 µM [inhibitor, partial curve, poor fit] | – | – |
| COc1ccc(CC(=O)Nc2ccc3ncnc(N4CCCC4)c3c2)cc1Cl | inconclusive: 56.2 µM [inhibitor, partial curve, poor fit] | – | – |
| Cc1ccc(C(=O)N2CCC(Cc3nc(-c4cnccn4)no3)CC2)cc1 | inconclusive: 39.8 µM [inhibitor, full curve, poor fit] | – | – |
| Cc1ccc(C(=O)N2CCC23Cc2ccccc2NC3=O)cc1 (centres undefined) | active: 100 µM | – | – |
| COCCN1C(=O)[C@H]2CN(Cc3scnc3C)C[C@H]2C1=O | – | – | inactive |
| COc1cccc(CNC(=O)c2nc3cccnc3n(Cc3ccccc3OC)c2=O)c1 | – | inactive: 1.22% | – |
| O=C1[C@@H]2C[C@@H](CN2C(=O)C2CCOCC2)Oc2ccccc2N1Cc1ccc(OC(F)(F)F)cc1 | inconclusive: 28.2 µM [inhibitor, partial curve, poor fit] | – | – |
| O=C(CNC(=O)c1cccc(-c2ccc(C(F)(F)F)cc2)c1)NCc1ccc2c(c1)OCO2 | inconclusive: 22.4 µM [inhibitor, partial curve] | – | – |
| Cn1ncc2c(N[C@@H]3CS(=O)(=O)C[C@H]3O)nc(-c3ccncc3)nc21 | inconclusive: 31.6 µM [inhibitor, full curve, poor fit] | – | – |
| CC(=O)NC1CCN(c2nccc(Nc3ccccc3F)n2)CC1 | inconclusive: 89.1 µM [inhibitor, partial curve, poor fit] | – | – |
| Cc1cc(C)c(CNC(=O)c2nc(-c3ccc(F)cc3)cc3c2ccn3C(C)C)c(=O)[nH]1 | active: 50.1 µM | – | – |
| CCOCCNC(=O)c1cc(-c2ccc(C(F)(F)F)cc2)nc2c1cnn2C | inconclusive: 17.8 µM [inhibitor, full curve, poor fit] | – | – |
| Cc1cc(C(=O)N2CC(C(=O)NCCc3ccncc3)C3(CCOCC3)C2)nn1C (centres undefined) | – | – | inactive |
| CCc1nc(C)c(C(=O)N2CCC3(CC2)CC(c2ccccc2)CN(CC)C3)o1 (centres undefined) | – | – | inactive |
| CC(C)C(=O)Nc1ccc2c(N3CCCCC3)ncnc2c1 | inconclusive: 79.4 µM [inhibitor, single point] | – | – |
| COC(=O)[C@H](CC1CCCCC1)NC(=O)[C@@H]1CN(C(=O)c2cccnc2)CCN1S(C)(=O)=O | – | inactive: -2.95% | – |
| O=C(Nc1cccc2ccccc12)O[C@@H]1CO[C@H]2[C@@H]1OC[C@@H]2NS(=O)(=O)c1cccs1 | inconclusive: 79.4 µM [inhibitor, partial curve, poor fit] | – | – |
| CCc1ccccc1S(=O)(=O)N1CCN(C2CCN(Cc3ccccn3)C2=O)CC1 (centres undefined) | – | inactive: -24.8% | – |

| SMILES | Potency | activity change, negative = cytotoxicity | outcome |
| --- | --- | --- | --- |
| O=C1CO[C@H]2CN(CCCc3ccccc3)C[C@H]2N1Cc1ccc(F)cc1 | inconclusive: 70.8 µM [inhibitor, partial curve, poor fit] | – | – |
| Cc1ccc(C2Cn3nnc(-c4noc(-c5cccs5)n4)c3CO2)cc1 (centres undefined) | – | inactive: -2.31% | – |
| COc1ccc(-c2ccc3nc(-c4ccc(F)cc4F)oc3c2)c(OC)c1OC | inconclusive: 56.2 µM [inhibitor, partial curve, poor fit] | – | – |
| CC1CCc2nn3ccn(CC(=O)NCc4ccccc4)c(=O)c3c2C1 (centres undefined) | inconclusive: 31.6 µM [inhibitor, full curve] | – | – |
| O=C(NCc1cccc(Cl)c1)c1ccc2nnc(C3CCOCC3)n2c1 | – | inactive: 2.33% | – |
| COCCOCC(=O)N1CCN(C(=O)N2CC3CC(C2)[C@H]2CCCC(=O)N2C3)CC1 (some centres undefined) | – | inactive: -22.3% | – |
| CCCCCCNC(=O)Cc1csc2nc(C)c(-c3cc(C)n(-c4ccccc4OC)n3)c(=O)n12 | inconclusive: 50.1 µM [inhibitor, partial curve, poor fit] | – | – |
| O=C1[C@H]2CC[C@H](CN(Cc3ccc(-n4ccnc4)cc3)C2)N1CC1CCC1 | inconclusive: 44.7 µM [inhibitor, partial curve, poor fit] | – | – |
| COCCCn1c(=O)c(C(=O)NCC(F)F)nc2cccnc21 | – | – | inactive [at 172 µM] |
| COCCNC(=O)CC1Sc2ncccc2N(CC(C)C)C1=O (centres undefined) | inconclusive: 89.1 µM [inhibitor, single point] | – | – |
| CCCCN(C)C(=O)c1cccc2c1CCN2C(=O)Nc1ccc(OC)cc1 | inconclusive: 50.1 µM [inhibitor, partial curve, poor fit] | – | – |
| O=C(CCSCc1ccccc1)N1C[C@@H](CN2CCOCC2)[C@@H](CO)C1 | inconclusive: 28.2 µM [inhibitor, full curve, poor fit] | – | – |
| CCCc1nnc(NC(=O)C2c3ccccc3C(=O)N(CCOC)C23CCCCC3)s1 (centres undefined) | inconclusive: 100 µM [inhibitor, single point] | – | – |
| COC(=O)CN1CCOC(c2ccc3cc(OC)ccc3c2)C1 (centres undefined) | inconclusive: 89.1 µM [inhibitor, single point] | – | – |
| O=C(c1ccccc1F)N1CCn2c(nnc2C2CC2)C1 | – | inactive: 0.291% [at 172 µM] | – |
| CC1(C)[C@H](Cc2cc(CCO)on2)C[C@@H]1NCc1ccncc1 | inconclusive: 89.1 µM [inhibitor, partial curve, poor fit] | – | – |
| Cc1ccc(C(=O)N2CCC(c3n[nH]c(=O)n3Cc3ccc(F)cc3)CC2)cc1F | – | inactive: -26.5% | – |
| COc1cc(=O)n2c(c1C(=O)Nc1cccc(C(F)(F)F)c1)CCCC2 | – | inactive: -0.594% | – |
| O=S(=O)(Cc1ccccc1)NCc1cccnc1Oc1ccccc1 | – | inactive: -13.3% | – |
| Cc1noc(C)c1S(=O)(=O)N1CCC2(CC1)c1[nH]c3ccccc3c1CCN2C | – | inactive: -20.4% | – |
| O=C(Cc1cccn1-c1ccc(F)cc1)N1CCCCC1 | inconclusive: 89.1 µM [inhibitor, single point] | – | – |
| Cc1ccccc1C(=O)N1CCCN(c2cc(-c3ccc(Cl)cc3)[nH]n2)CC1 | inconclusive: 31.6 µM [inhibitor, partial curve, poor fit] | – | – |
